Laboratory results as given in the RNAGym collection of RNA variant scans (doi:10.1073/pnas.2313332121).
Variants at the background level are over-represented here.

B1: TPR 5TU (parent)
chain: GGAUCUUCUCGAUCUAACAAAAAAGACAAAUCUGCCACAAAGCUUGAGAGCAUCUUCGGAUGCAGAGGCGGCAGCCUUCGGUGGCGCGAUAGCGCCAACGUUCUCAACUAUGACACGCAAAACGCGUGCUCCGUUGAAUGGAGUUUAUCAUG

Variants of: B1
Experiment: polymerase ribozyme fitness, log enrichment relative to wild type (log ratio); higher = more active; in vitro selection for triplet polymerase activity
Procedure, shortened: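 A heterodimeric triplet polymerase ribozyme had each of its subunits mutagenized by PCR into a library, which was transcribed. One round of in vitro selection, done in triplicate, annealed each library with a biotinylated primer, its partner subunit and triplets, then incubated it frozen at −7 °C before gel excision of extended constructs, streptavidin-bead capture and RT-PCR. Fitness is the logarithm of genotype enrichment relative to wild-type enrichment, based on Illumina sequencing of inputs and outputs and inverse-variance-weighted replicate averages. A base-2 logarithm is used, and genotypes were kept only with ≥10 input reads and ≥1 read per output.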

Row | Variant | polymerase ribozyme fitness (log ratio)
1 | GGAUCUUCUCGAUCUAACAAAAAAGACAAAUCUGCCACAAAGCGUGAGAGCAUCUUCGGAUGCAGAGGCGGCAGCCUUCGGUGGCGAGAUAGCGCCAACGUUUUCAAAUCUGACACGCAAAACGCGUGCUCAGUUGAAUGGAGUUUAUCAUG [U44G C87A C103U C108A A110C C132A] | ≤ -4.2
2 | GGAUCUUCUCGAUCUAACAAAAAAGACAAAUCUGCCACAAAGCCUGAGAGCAUCUUCGUAUGCAGAGGCGGCAGCCUUCGGUGGCGCGAUAACGCCAACGUUCUCAACUAUGACACGCAAAACGCGUGCUCCGUAGAAUGGAGUUUAUCAUG [U44C G59U G92A U135A] | ≤ -4.2
3 | GGAUCUUCUCGAUCUAACAAAAAAGACAAAUCUGCCACAAAGCAUGAGAGCAUCAUCGGAUGCAGAGGCGGCAGCCUUCGGUGGUGCGAUAGCGCCAACGUUCUCAAUUAUGACACGCAAAACGCCUGCUCCGUUGAAUGGAGUUUAUCAUG [U44A U55A C85U C108U G126C] | ≤ -4.2
4 | GGAUCUUCUCGAUCUAACAAAAAAGACAAAUCUGCCACAAAGCCUUAGAGCAUCUUCGGAUGCAGAGGCGGCGGCCUUAGGUGGCGCGAUAGCGCCAGCGUUCUCAACUAUGACACGCAAAACGCGUGCUCCGUUGAAUGGAGUUUAUCAUG [U44C G46U A73G C79A A98G] | ≤ -4.2
5 | GGAUCUUCUCGAUCUAACAAAAAAGACAAAUCUGCCACAAAGCGUGAGAGUAUCUUCGGAUGCAGAGGCGGCAACCUUCGGUGGCGCGAUAGCCCCAACGUUCUCAACUAUGACACGCAUAACGCGUGCUCCGUUGAAUGGAGUUUAUGAUG [U44G C51U G74A G94C A120U C149G] | ≤ -4.2
6 | GGAUCUUCUCGAUCUAACAAAAAAGACAAAUCUGCCACAAAGCAUGAGAGCAUCUUCGGAUGCAGAGGCGGCAGCCGUCGGUGGCGCGAUAGCGCCAACGUUCUCAACUAUGACACGCAAAACGCGUGCUCCGUUGAAUGGAGUUUAUCGUG [U44A U77G A150G] | ≤ -4.2
7 | GGAUCUUCUCGAUCUAACAAAAAAGACAAAUCUGCCACAAAGCGUGAGAGCAUUUUCGGAUGCAGAGGCGGCAGCCUUCGGUGGGGCGAUAGCGCCAACGUUCUCAACUAUGACACUCAAAUCGCGUGCUCCGUUGAAUGGAGUUUAUCAUG [U44G C54U C85G G117U A122U] | ≤ -4.2
8 | GGAUCUUCUCGAUCUAACAAAAAAGACAAAUCUGCCACAAAGCAUGAGAGCAUCGUCGGAUGCAGAGGCGGCAGCCUUCGGUGGCGAGAUAGCGCCAACGUUCUCAACUAUGACACGCAAAACGCGUGCUCCGUUGAAUGGAGUUUAUCAUG [U44A U55G C87A] | ≤ -4.2
9 | GGAUCUUCUCGAUCUAACAAAAAAGACAAAUCUGCCACAAAGCAUGAGAGCAUCUUCGGAUGCAGAGGCGGCAGCCUUCGGUGGCGCGAUAGCGCCAACGUUCUCAACUAUGACACGCAAAACGCGUGCUCCGUUGAAUGGAGCUUAUCAUG [U44A U144C] | -3.62
10 | GGAUCUUCUCGAUCUAACAAAAAAGACAAAUCUGCCACAAAGCCUGAGAGCAUCUUCGGAUGCAGAGGCGGCAGCCUUCGGUGGCGCGAUAGCGCCAACGUUCUCAUCUAUGACACGCAAAACGCGUGCUCCGUUGAAUGGAGUUUAUCAUG [U44C A107U] | ≤ -4.2
11 | GGAUCUUCUCGAUCUAACAAAAAAGACAAAUCUGCCACAAAGCAUGAGAGCAACUUUGGAUGCAGAGGCGGCAGCCAACGGUGUCGCGAUAGCGCCAACGUUCUCAACUAUGAUACGCAAACAGAGUGCUCCGUUGAAUGGAGUUCAUCAUG [U44A U53A C57U U77A U78A G84U C114U A122C C123A C125A U146C] | ≤ -4.2
12 | GGAUCUUCUCGAUCUAACAAAAAAGACAAAUCUGCCACAAAGCCUGAGAGCAUCUUCAGAUGCGGAGGCGGCAGCCUUCGGUGGCGCGAUAGGGCCAACGUUCUCAACUAUGACACGCGAAACGCGUGCUCCGUUGAAUGGAGUUUAUCAUG [U44C G58A A64G C93G A119G] | ≤ -4.2
13 | GGAUCUUCUCGAUCUAACAAAAAAGACAAAUCUGCCACAAAGCCUGAGAGCAUCUUCGAAUGCAGAGGCGGCAGCCUUCGGUGGCGCGAUAGCGCCAACGUUCUCAACUAUGACACGCAAAACGCGUGCUCCGUUGAAUGCAGUUUAUCAUG [U44C G59A G141C] | ≤ -4.2
14 | GGAUCUUCUCGAUCUAACAAAAAAGACAAAUCUGCCACAAAGCAUGAGAGCAACUUCGGAUGCAGAGGCGGCAGCCUUGGGUGGGGCGAUAGCGCCAACGUUCUCAACUAUGACACGCGAAACGCGUGCUCCGUGGAAUGGAGUUUAUCAUG [U44A U53A C79G C85G A119G U135G] | ≤ -4.2
15 | GGAUCUUCUCGAUCUAACAAAAAAGACAAAUCUGCCACAAAGCCUGAGAGCAUCUUCGGAUGCAGAGGCGGCAGCCUUCGGUGGCGCGAUAGCACCAACGUUCUCAACUAUGACACGCAAAACGCGUGCUCCGUUGAAUGGACUUUAUCAUG [U44C G94A G143C] | ≤ -4.2
16 | GGAUCUUCUCGAUCUAACAAAAAAGACAAAUCUGCCACAAAGCAUGAGAGCAUCAUCGGAUGCAGAGGCGGCAUCCUUCGGUGGCGCGAUAGCGCCAACGUUCUCAACUAUGACACGCAAAACGCGUGCUCCGUUGAAUGGAGUUUAUCAUG [U44A U55A G74U] | ≤ -4.2
17 | GGAUCUUCUCGAUCUAACAAAAAAGACAAAUCUGCCACAAAGCCUGAGAGCAUCUUGGGAUGCAGAGGCGGCAGCCUUCGGGGGGGCGAUAGCGCCAACGUUCUCAACUAUGUCACGCAAAACGCGUGCUCCGUUGAAUCGAGUUUAUCAUG [U44C C57G U82G C85G A113U G140C] | ≤ -4.2
18 | GGAUCUUCUCGAUCUAACAAAAAAGACAAAUCUGCCACAAAGCAUGAGAGCAUCUUCGGAUGCAGAGGCGGCAGCCUUCGGAGGCGCGAUAGCGCCAACGUUCUCAACUAUGACACGCAAAACGCGUGCUCCGUUGAAUGGAGUUUAUCAUG [U44A U82A] | -4.18
19 | GGAUCUUCUCGAUCUAACAAAAAAGACAAAUCUGCCACAAAGCGUGAGUGCAUCUUCGGAUGCAGACGCGGCAGCCUUCGGUUGCGCGCUAGCGCCAACGUUCUCAACUAUGACACGCAAAACGCGUGCUCCGUUGAAUGGAGUUUAUCAUG [U44G A49U G67C G83U A89C] | ≤ -4.2
